Laboratory results published in publication PMC4336329 (PLoS ONE, 2015).
Screen size: about 310,000 compounds; about 2,200 (0.71%) showed an effect of 50% or more. The effect is printed as a negative number. The list shows a part of the results.

target: human ether-à-go-go-related gene (hERG) potassium channel (human, UniProt Q12809); assay: primary screen, population patch clamp on CHO cells stably expressing hERG
Sequence (Q12809 whole entry, looked up): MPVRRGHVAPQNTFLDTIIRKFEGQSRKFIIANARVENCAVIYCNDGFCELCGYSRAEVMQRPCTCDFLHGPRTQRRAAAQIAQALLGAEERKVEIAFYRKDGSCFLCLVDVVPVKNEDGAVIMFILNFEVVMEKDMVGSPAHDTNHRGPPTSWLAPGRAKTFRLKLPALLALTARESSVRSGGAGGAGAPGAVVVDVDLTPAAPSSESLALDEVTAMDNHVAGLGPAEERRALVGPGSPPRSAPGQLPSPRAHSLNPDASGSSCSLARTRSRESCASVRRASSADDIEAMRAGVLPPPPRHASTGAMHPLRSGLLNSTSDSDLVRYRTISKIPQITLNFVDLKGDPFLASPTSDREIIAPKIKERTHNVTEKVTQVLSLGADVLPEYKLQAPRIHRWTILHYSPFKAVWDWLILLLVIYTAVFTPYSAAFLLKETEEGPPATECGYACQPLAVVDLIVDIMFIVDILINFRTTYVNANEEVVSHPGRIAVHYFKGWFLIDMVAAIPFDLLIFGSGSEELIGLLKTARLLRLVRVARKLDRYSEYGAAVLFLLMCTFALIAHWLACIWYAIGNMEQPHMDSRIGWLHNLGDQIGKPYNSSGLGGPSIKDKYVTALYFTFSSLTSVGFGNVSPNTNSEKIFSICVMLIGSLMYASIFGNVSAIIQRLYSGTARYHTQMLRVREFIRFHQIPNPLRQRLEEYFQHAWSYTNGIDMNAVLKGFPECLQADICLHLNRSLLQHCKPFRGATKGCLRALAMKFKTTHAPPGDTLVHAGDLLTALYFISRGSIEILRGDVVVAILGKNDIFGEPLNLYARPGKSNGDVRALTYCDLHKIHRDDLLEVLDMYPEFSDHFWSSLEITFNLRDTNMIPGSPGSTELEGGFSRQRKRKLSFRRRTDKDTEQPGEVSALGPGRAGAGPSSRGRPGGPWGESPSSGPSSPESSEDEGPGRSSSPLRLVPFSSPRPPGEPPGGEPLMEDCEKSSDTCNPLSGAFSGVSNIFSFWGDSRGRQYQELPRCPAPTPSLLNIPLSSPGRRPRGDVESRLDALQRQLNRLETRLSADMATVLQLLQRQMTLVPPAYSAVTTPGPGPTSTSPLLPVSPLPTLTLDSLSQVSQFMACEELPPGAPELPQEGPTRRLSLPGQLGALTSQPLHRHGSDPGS

| Compound | hERG current change (%, negative = inhibition) at 1uM [%] |
| --- | --- |
| Cc1c(C=O)c2ccccc2n1CC(=O)NCc1ccccc1 | 20.1 |
| CCOC(=O)CSc1nnc(CNC(=O)c2cccs2)n1-c1cccc(C)c1 | -0.396 |
| O=C(O)CCCC(=O)Nc1ccccc1Br | 7.35 |
| CCCCOCCCNC(=O)CC(C)c1ccccc1 (stereo not drawn) | 11.6 |
| CCN(CC)C(=O)c1ccc(-c2nnc(Nc3ccc(C(=O)N(C)C)cc3)c3ccccc23)cc1 | 4.81 |
| CC(C)(C)NC(=O)C(c1ccccc1)N(C(=O)c1csnn1)C1CC1 (stereo not drawn) | 5.85 |
| CCOC(=O)C1CCCN(C(=O)Cc2c(F)cccc2Cl)C1 (stereo not drawn) | 14.1 |
| CCC(=O)C1CCCN(C(=O)c2ccc(OC3CCN(C(=O)c4cccnc4)CC3)cc2)C1 (stereo not drawn) | 4.4 |
| O=C(COc1ccccc1)Nc1nccs1 | 0.509 |
| O=C(OCC(=O)N1CCOCC1)c1ccccc1Br | 17.3 |
| COc1ccc(OCCC(=O)N2CCN(C)CC2)cc1.Cl | 17 |
| O=CNCCCc1nc2ccccc2n1Cc1cccc2ccccc12 | -13.3 |
| CCCCn1nc(C(=O)NNC(=O)c2ccncc2)c2ccccc2c1=O | 7.47 |
| C=CCn1c(CC(C)(C)C)nc2ccccc21 | 7.91 |
| O=C(COC(=O)c1ccco1)NC(c1ccccc1)c1ccccc1 | 5.02 |
| Clc1ccc(Cl)c(OCCCCNCc2ccccc2)c1.O=C(O)C(=O)O | -6.63 |
| COc1ccc(Cl)cc1NC(=S)NCc1ccccn1 | 12.6 |
| CCCc1ccc(OCCNC(=O)CC)cc1 | 6.36 |
| CCC(C(=O)OC)n1cnc2c(nnn2-c2cccc(OC)c2)c1=O (stereo not drawn) | 1.98 |

| Compound | hERG current change (%, negative = inhibition) at 1uM [%] |
| --- | --- |
| O=C(NC1(Cc2ccccc2)CCN(Cc2ccc(-c3ccccc3)cc2)C1=O)c1ccccc1 (stereo not drawn) | 12.5 |
| COc1cccc(C2/C(=C(/O)c3ccc4c(c3)CC(C)O4)C(=O)C(=O)N2c2nnc(C)s2)c1 (stereo not drawn) | 10.2 |
| CCOc1ccc(CN2CCCC(C(=O)c3ccccc3OC)C2)cc1 (stereo not drawn) | -74.1 |
| Cc1[nH]n(-c2ccccc2)c(=O)c1/C=N/NC(=O)c1cccc(F)c1 | 15.4 |
| COc1ccc(Br)cc1C(=O)N/N=C/c1ccc([N+](=O)[O-])cc1 | 20.9 |
| CC(C)c1csc(CN2CCN(Cc3ccc(F)c(F)c3)C(CCO)C2)n1 (stereo not drawn) | 2.23 |
| CCC/C=C(\CCC)C(NC(=O)OCC(C)C)c1ccc(C(=O)OC)cc1 (stereo not drawn) | 6.54 |
| Cn1c(CSCc2ccccc2)nnc1SCC(=O)Nc1nccs1 | -17.6 |
| NC(=O)N/N=C/c1ccccc1OCC(=O)NCc1ccccc1 | 2.35 |
| O=C(O)CCn1c(=O)[nH]c2ccccc2c1=O | 22.8 |
| COc1ccc(Br)cc1CN(C)C(=O)c1ccccc1OCc1c(C)noc1C | 5.97 |
| COc1cccc(/C=N/NC(N)=S)c1OCc1ccccc1Cl | 0.712 |
| O=C(C1=C[C@@H](c2coc3ccccc3c2=O)C[C@@H](OCc2ccc(CO)cc2)O1)N1CCOCC1 | 0.983 |
| O=C(Nc1ccccc1O)c1ccc2c(c1)C(=O)N(c1ccccc1)C2=O | 9.95 |
| Cc1ccc(C(=O)OCC(=O)Nc2sccc2C(N)=O)cc1NC(=O)c1ccco1 | 17.2 |
| NC(=O)c1ccsc1NC(=O)c1ccc(S(=O)(=O)N2CCCC2)cc1 | 1.07 |
| CC(=O)Nc1ccc(/C=C/c2nc3ccccc3[nH]c2=O)cc1 | 13.8 |
| CCn1c(=O)cc(SCC(=O)N2CCN(c3ccccc3F)CC2)c2ccccc21 | 9.89 |
| O=C(Nc1ccc(OC(F)F)cc1)c1ccccn1 | 9.46 |

| Compound | hERG current change (%, negative = inhibition) at 1uM [%] |
| --- | --- |
| CCOc1ccccc1CN1CCNC(=O)C1CC(=O)NCc1ccccn1 (stereo not drawn) | -15.6 |
| CCOC(=O)C(NC(=O)c1ccc(F)cc1)(Nc1sc2c(c1C(N)=O)CCC2)C(F)(F)F (stereo not drawn) | 15.8 |
| Cc1cccc(N(CC(=O)NCc2ccc(F)cc2)C(=O)c2csnn2)c1C | -18.1 |
| CCOC(=O)C1=C(COC(=O)COc2ccc(OCC)cc2)NC(=O)NC1C (stereo not drawn) | 8.38 |
| Cc1ccc(-c2noc(C3CCCCC3)n2)cc1 | 8.8 |
| COc1ccc(C2N3CC(C)(C)CN23)cc1 (stereo not drawn) | 10.2 |
| Cc1cc(C(=O)OCn2nnc3ccccc3c2=O)c(C)o1 | 4.93 |
| CN(CC(=O)Nc1ccccc1Cl)C(=O)COC(=O)C1CC1 | 4.93 |
| O=C(NCCN1CCOCC1)c1ccc2c(c1)N(Cc1ccccc1F)C(=O)c1ccccc1S2(=O)=O | 11.9 |
| Cn1cccc1C(=O)NC(=O)COC(=O)c1ccc(O)cc1 | 7.5 |
| CCC1CCCCN1S(=O)(=O)c1ccc(NC(=O)c2snnc2C)cc1 (stereo not drawn) | 11.5 |
| CS(=O)(=O)N(CC(=O)N1CCC(C(N)=O)CC1)c1ccc(Cl)c(C(F)(F)F)c1 | 2.25 |
| COc1cc(C)c(CN2CCC(Cc3ccccc3)CC2)cc1C | 9.96 |
| COc1ccc(NC(=O)N2CCC3(CC2)OCCO3)cc1 | 2.8 |
| FC(F)(F)c1cccc(N2CCN(C(=S)NC3CCCCC3)CC2)c1 | 2.38 |
| Cc1cc(/C=C(\C#N)C(=O)Nc2ccccc2)c(C)n1-c1cccnc1 | 11 |
| CC(C)c1ccc(N(C(=O)CNC(=O)c2ccco2)C(C(=O)NC2CCCC2)c2cccnc2)cc1 (stereo not drawn) | 4.72 |
| CCN(CC)c1ccc(/C=C2/C(=O)c3ccc(C(=O)O)cc3C2=O)cc1 | 10.9 |
| COC(=O)C1CCN(Cc2c(C(=O)N3C[C@@H](C)O[C@@H](C)C3)nc3ccc(Cl)cn23)CC1 | 17.1 |
